Assay results reported in the supplement of paper PMC11417369.
± gives the standard deviation of the averaged measurements. Some of the results follow.

system: PfAP2-EXP AP2 domain (GST-tagged); assay: gcPBM binding intensity (ln(normalized median fluorescence intensity)); higher = stronger DNA binding
Summary of the method: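 The highest Masliner-normalised natural-log median intensity across replicate spots of either probe orientation is reported as binding intensity. GST-tagged P. falciparum DNA-binding domains expressed in E. coli were applied for 1 h to an Agilent 4 × 180k array of primer-extended double-stranded 36-bp intergenic genomic probes plus negative controls, and bound protein was detected with Alexa488 anti-GST antibody and scanned at 488 nm.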

Sequence | gcPBM binding intensity (ln)
CATATTCCCCCCCACACACACACACCCATACATACC [CACACA_site2303] | 11.1 ± 0.18
AATAAATAGATATATACACACATATATCTATAATAT [CACACA_site6557] | 8.3 ± 0.36
TCTTCATTTTTATGTGCATGTAAAATTTTTTTTTTT [TGCATGCA_site963] | 9.26 ± 0.57
GACAATAAAAAGAAAAGTACATATATAAATTAACCA [XGTACX_site7858] | 8.63 ± 0.44
AGAGGATCATAGTTATGTACACATATTTAACATAAA [XGTACX_site7232] | 8.4 ± 0.32
TTTTTTTCTAATTATGCACACATATCAAAATATTCA [CACACA_site8886] | 8.83 ± 0.028
ATATTTATTATATAATGTACAAAAAAAAAAAAAAAA [XGTACX_site629] | 8.14 ± 0.57
TTACTTAAATATAAGTGTCCTCAAAAAAAAAAAAAA [XGTACX_site460] | 8.22 ± 0.5
ATTTTTTATATTAATTGTACATTGTATATATATATA [XGTACX_site8702] | 9.9 ± 0.2
ATGTATGTTTTTTTTTTATTGTTCAAAAAGTTGAAG [CACACA_negctrl_site1276] | 8.7 ± 0.42
AATATAAGTTTATTAGTGCACAGATAAATATATATT [GTGCAC_site9784] | 8.95 ± 0.11
TTTTTATAAAAATTATTAAAAAAATTATTTATAGCT [CACACA_negctrl_site265] | 7.9 ± 0.41
TTTTTTTTCAATCTCTATATATTAAGGTTTATATTT [XGTACX_negctrl_site397] | 8.46 ± 0.44
AAATATATTATTATCTTATCAATTAAAAGAATAAAC [CACACA_negctrl_site779] | 8.39 ± 0.33
TAGCGCATAAAAAAAAAAAAATATATACTAATAAAT [GTGCAC_negctrl_site276] | 8.21 ± 0.61
ACAACACTATATTACACATGCATTAAGAGAGTGAAC [TGCATGCA_site124] | 9.01 ± 0.47
ACATTAAAATATGATTGTACATTTTATTATATTATA [XGTACX_site912] | 8.37 ± 0.24
ATATAATTATTGATATGTACATATTTGTTCTAGTTT [XGTACX_site3012] | 8.82 ± 0.47
ATTCAAATATTAAAAAGTACAAAAAAAAAACAAAAA [XGTACX_site1174] | 8.72 ± 0.45
CTATCATATTTATGCACACAAAAATAATTAATTCGT [CACACA_site2614] | 8.59 ± 0.11
TATTTTGAGAATAAATGTACGAATTTTATATTTAAA [XGTACX_site1336] | 8.15 ± 0.32
ACCTGTTCATATGATCGTACACGTCAGTTTATATGA [XGTACX_site3869] | 8.85 ± 0.34
GAGTATTCAAGTATTAGTACATATTATATAATAAAT [XGTACX_site7630] | 8.46 ± 0.31

Sequence | gcPBM binding intensity (ln)
AATCCTTACGGACACACACACACGAATAAATAAAAA [CACACA_site4422] | 8.74 ± 0.55
TAAAATAAAAATTAAAGTACATATGTATATATATAT [XGTACX_site3984] | 9.86 ± 0.19
TACAAAATGGGGAACACACACATATATAAATAAATA [CACACA_site7751] | 8.9 ± 0.4
ATAATTATTTTAGAAACACACAAATTAGAAAAAACA [CACACA_site3636] | 8.5 ± 0.26
ACTGTAAAAGGATTTACACACATATTTACATTTACA [CACACA_site519] | 8.62 ± 0.39
TACCAATGCATAACGGTGCAAAAAAATAAGGAATAA | 9.055 ± 0.007
ATGCATATAACTACGTGTACAAATATACACAAATAC [XGTACX_site8811] | 8.91 ± 0.3
TTTCCTTATTAAAACACACAAATACATTATTTAATC [CACACA_site7080] | 8.32 ± 0.45
ATATATATATTTGTATGTACATATATATATTCGTAT [XGTACX_site1640] | 9.23 ± 0.29
ACCCATAAAAAGGATACACACACACCCACCCATATA [CACACA_site8205] | 9 ± 0.58
ACAAGTCAGGCAAAAACATGCATTATTTGAACATTA [TGCATGCA_site864] | 8.6 ± 0.55
AAAAAAAAAAAAGGAGGTACACAATTTTATATATGC [XGTACX_site5296] | 8.6 ± 0.4
ACATTTTTTTCATATCGTACATATTATAATATTTTC [XGTACX_site6524] | 8.9 ± 0.39
GAGCATTACCCATATACACACATATATATAAACCTA [CACACA_site2737] | 8.72 ± 0.36
TTTTGTTATTTTTTAGTGCATATAAAGGTTGTTAAG | 8.78 ± 0.14
TTTTGCAATAATGTTGCACACTAAATAGTCATCTAT [CACACA_site4304] | 8.37 ± 0.31
TAAAACAACAAAGAAAATGAAAAAGTAAAAACATAT [CACACA_negctrl_site1049] | 8.94 ± 0.47
GTACGATAAAAAATTGGACAAAAAAAAAAAAAAAAT [XGTACX_negctrl_site158] | 8.45 ± 0.5
ATTTCATAAATTAAACGTACATAATACACACACATG [XGTACX_site4155] | 9.09 ± 0.35
AAAAACTAATCTTTAACATGCAACCGTTTATACATA [TGCATGCA_site363] | 8.51 ± 0.4
TGAGTTACATACTAATGTACACAACAAAAAAAAAAA [XGTACX_site2390] | 8.56 ± 0.4
AAAGGTTTATATGATACACACATAAGTGATCAGGTT [CACACA_site190] | 8.35 ± 0.45
TTTTTTTGAACATATACACACTCTAAACTTATACAT [CACACA_site3917] | 8.6 ± 0.39

Sequence | gcPBM binding intensity (ln)
TAATTTATGACACGCGCACACATATATATATAGTAA [CACACA_site4249] | 8.89 ± 0.49
AAAAATTATGGACACACACACATATATATATATATT [CACACA_site4717] | 8.53 ± 0.31
AATAAAATAAAATACACACATACATACATACAAATG [CACACA_site2438] | 8.86 ± 0.32
GGTATACGCAAGTATACACACATATATATATATATA [CACACA_site3240] | 10.1 ± 0.47
AAAGTGGCCATATATTTTTTTTTTTTTTTCCTTATT [CACACA_negctrl_site485] | 8.11 ± 0.53
AAAAATAAAGGATATACACACTAATTATATATATAT [CACACA_site5550] | 9.54 ± 0.18
ATTATTATATTTATATGTACATAGAAAAAATTAAAT [XGTACX_site2058] | 8.53 ± 0.42
TAGTATCCAAGAAAAAGTACTTATTTTAATTTTTTA [XGTACX_site6243] | 8.03 ± 0.34
TCAGATATATATATATAAATATATATTTTGAAATGT [CACACA_negctrl_site686] | 8.19 ± 0.26
AATATTTATAAAGACACACAAACAAAAAGGATAAAA [CACACA_site2985] | 9 ± 0.57
TCATTTAAGTAGACGCGTACGGAAATTACGAATCCT [XGTACX_site144] | 8.59 ± 0.42
TTTTTTTTTTGTTGAGTGCAATTATTTGTAAGAAAA | 8.49 ± 0.3
AAATTAATATATAAAAGTACCCATATATTTAATATA [XGTACX_site3551] | 8.21 ± 0.39
GTCATATATATATGTACACACATATATATATTTATA [CACACA_site1459] | 8.47 ± 0.21
GTACGTTACATAAATGTGCACATATTATATGCGAAG | 9.19 ± 0.3
TCAAAGCACCCATACACACACATATATATATATATA [CACACA_site4317] | 10.3 ± 0.19
TCTCCACCTCTCTTGGTGCGTTATACCCTCGAGGCT | 9.005 ± 0.007
TATAACAAAATATTCACACATATAAGTAAATAAAGG [CACACA_site5777] | 8.73 ± 0.28
AGTTTGTTTTTTTTTTTTTTTTCCTGTCACAAACAA [CACACA_negctrl_site1093] | 8.79 ± 0.53
AAGAAAAAAATTTAATTAAATGAAATTTTTGAATTA [TGCATGCA_negctrl_site25] | 8.07 ± 0.4
AAGACTGCACTTTAAGCACACAAATATATTTTTTTT [CACACA_site8337] | 8.89 ± 0.26
TGATAAAATGGGGAAATTCATTATATCATATCTTGG [CACACA_negctrl_site789] | 8.47 ± 0.65
TTGGATAAAAAATATGTACACACATATAGATATCTA [CACACA_site8862] | 8.48 ± 0.31

Sequence | gcPBM binding intensity (ln)
ATTATATTAAAATACACACCCAAATATTAAAAAGAT [CACACA_site5613] | 8.94 ± 0.62
GGTAATTTCCTTTTTTGTACTCATAGAAGGATAATA [XGTACX_site89] | 8.58 ± 0.4
TTTGAAATATTAAATGCATGTTAAAACATAAAAATG [TGCATGCA_site680] | 8.69 ± 0.27
TTTCTTCTTCTATTGTGTACGTAAAAAAAAAAAAAA [XGTACX_site772] | 8.55 ± 0.48
TTTTGTTTAATATTCACACATATATATTTTTTATTT [CACACA_site5496] | 8.64 ± 0.38
CTTTTTATTTAGGAGGTGCATGTAATACGGAACATA | 9.085 ± 0.035
ATTTGTTATATATTCTTTTATGTTAATAATTCGAAT [CACACA_negctrl_site378] | 8.54 ± 0.42
GATCTATACATGGGGACACACATCACTCTATATTTT [CACACA_site3408] | 8.93 ± 0.42
AAAAAATACAAACACACACACACACCCATATATATA [CACACA_site3560] | 8.71 ± 0.3
TATGAATAAAAAAGAAGTACAAATTATATGAACGCA [XGTACX_site3018] | 9.07 ± 0.46
CATACTGTTATAAAATGTACGCATATACACACACAT [XGTACX_site7256] | 8.75 ± 0.37
TACATATTTTGTATATATTATTTATTTTATTAGTTT [XGTACX_negctrl_site85] | 8.41 ± 0.42
TTCTGACTTGTTATAATTTGTATATCCGAAAAAATT [TGCATGCA_negctrl_site456] | 8.39 ± 0.33
ACTATTATTAAAAATTGTACTTTCTATAAATTTTTT [XGTACX_site7825] | 8.57 ± 0.39
TTTTATCAAATATTTATTTTATACATAAATATTTAT [XGTACX_negctrl_site528] | 8.42 ± 0.4
AGAAACATATGGTAGTGTACTGTAAATTTATTCTTT [XGTACX_site8602] | 8.66 ± 0.47
ATTTTGTGTAGTGATGCATGTTATATATATATTTGA [TGCATGCA_site422] | 8.99 ± 0.43
ATAACATCAGTATTATGTACATATGTAGGTAAATAA [XGTACX_site7066] | 8.82 ± 0.32
CGTTATTATACACATACACACAGGAATAAAAAATTA [CACACA_site7373] | 8.64 ± 0.47
TTTTATTGTTTTTTTTTTTTTTCTTTTTTTTTTTTT [CACACA_negctrl_site1094] | 8.14 ± 0.61
